Reference: the supplement of paper PMC8728848
This is one part of the list.

Columns and labels:
Test in all cases: glycan array binding signal (z-score within array); higher = stronger binding
Settings in all cases: glycan notation: IUPAC condensed, linker removed; mutation: N224Q
[1] = biological target: Gal(b1-4)GlcNAc(b1-2)Man(a1-6)[GlcNAc(b1-2)Man(a1-3)]Man(b1-4)GlcNAc(b1-4)GlcNAc
In short: (§1)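 The Consortium for Functional Glycomics database supplied 3228 glycan arrays, of which those lacking an available protein sequence were dropped. The binding signal, a within-array Z-score, was averaged across arrays of the same protein sequence and across linkers. Negative scores can be read as non-binding.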

[2] = biological target: Gal(b1-4)GlcNAc(b1-2)Man(a1-6)[Man(a1-3)]Man(b1-4)GlcNAc(b1-4)GlcNAc
In short: as §1

[3] = biological target: Gal(b1-4)GlcNAc(b1-2)[Gal(b1-4)GlcNAc(b1-4)]Man(a1-3)[Gal(b1-4)GlcNAc(b1-2)Man(a1-6)]Man(b1-4)GlcNAc(b1-4)GlcNAc
In short: as §1

[4] = biological target: Gal(b1-4)GlcNAc(b1-2)[Gal(b1-4)GlcNAc(b1-4)]Man(a1-3)[Gal(b1-4)GlcNAc(b1-2)[Gal(b1-4)GlcNAc(b1-6)]Man(a1-6)]Man(b1-4)GlcNAc(b1-4)GlcNAc
In short: as §1

[5] = biological target: Gal(b1-4)GlcNAc(b1-2)[Gal(b1-4)GlcNAc(b1-4)]Man(a1-3)[GlcNAc(b1-4)][Gal(b1-4)GlcNAc(b1-2)Man(a1-6)]Man(b1-4)GlcNAc(b1-4)GlcNAc
In short: as §1

[6] = biological target: Gal(b1-4)GlcNAc(b1-2)[Gal(b1-4)GlcNAc(b1-4)]Man(a1-3)[GlcNAc(b1-4)][Gal(b1-4)GlcNAc(b1-2)[Gal(b1-4)GlcNAc(b1-6)]Man(a1-6)]Man(b1-4)GlcNAc(b1-4)GlcNAc
In short: as §1

[7] = biological target: Gal(b1-4)GlcNAc(b1-2)[Gal(b1-4)GlcNAc(b1-6)]Man(a1-6)[Gal(b1-4)GlcNAc(b1-2)Man(a1-3)]Man(b1-4)GlcNAc(b1-4)GlcNAc
In short: as §1

[8] = biological target: Gal(b1-4)GlcNAc(b1-2)[Gal(b1-4)GlcNAc(b1-6)]Man(a1-6)[Gal(b1-4)GlcNAc(b1-2)Man(a1-3)]Man(b1-4)GlcNAc(b1-4)[Fuc(a1-6)]GlcNAc
In short: as §1

[9] = biological target: Gal(b1-4)GlcNAc(b1-2)[Gal(b1-4)GlcNAc(b1-6)]Man(a1-6)[GlcNAc(b1-4)][Gal(b1-4)GlcNAc(b1-2)Man(a1-3)]Man(b1-4)GlcNAc(b1-4)GlcNAc
In short: as §1

[10] = biological target: Gal(b1-4)GlcNAc(b1-2)[Gal(b1-4)GlcNAc(b1-6)]Man(a1-6)[GlcNAc(b1-4)][Gal(b1-4)GlcNAc(b1-2)[Gal(b1-4)GlcNAc(b1-4)]Man(a1-3)]Man(b1-4)GlcNAc(b1-4)[Fuc(a1-6)]GlcNAc
In short: as §1

[11] = biological target: Gal(b1-4)GlcNAc(b1-3)Gal(b1-3)GalNAc
In short: as §1

[12] = biological target: Gal(b1-4)GlcNAc(b1-3)Gal(b1-3)GlcNAc
In short: as §1

[13] = biological target: Gal(b1-4)GlcNAc(b1-3)Gal(b1-4)Glc
In short: as §1

[14] = biological target: Gal(b1-4)GlcNAc(b1-3)Gal(b1-4)GlcNAc
In short: as §1

[15] = biological target: Gal(b1-4)GlcNAc(b1-3)Gal(b1-4)GlcNAc(b1-2)Man(a1-3)[Gal(b1-4)GlcNAc(b1-3)Gal(b1-4)GlcNAc(b1-2)Man(a1-6)]Man(b1-4)GlcNAc(b1-4)GlcNAc
In short: as §1

[16] = biological target: Gal(b1-4)GlcNAc(b1-3)Gal(b1-4)GlcNAc(b1-2)Man(a1-3)[Gal(b1-4)GlcNAc(b1-3)Gal(b1-4)GlcNAc(b1-2)Man(a1-6)]Man(b1-4)GlcNAc(b1-4)[Fuc(a1-6)]GlcNAc
In short: as §1

[17] = biological target: Gal(b1-4)GlcNAc(b1-3)Gal(b1-4)GlcNAc(b1-2)[Gal(b1-4)GlcNAc(b1-3)Gal(b1-4)GlcNAc(b1-6)]Man(a1-6)[Gal(b1-4)GlcNAc(b1-3)Gal(b1-4)GlcNAc(b1-2)Man(a1-3)]Man(b1-4)GlcNAc(b1-4)GlcNAc
In short: as §1

[18] = biological target: Gal(b1-4)GlcNAc(b1-3)Gal(b1-4)GlcNAc(b1-2)[Gal(b1-4)GlcNAc(b1-3)Gal(b1-4)GlcNAc(b1-6)]Man(a1-6)[Gal(b1-4)GlcNAc(b1-3)Gal(b1-4)GlcNAc(b1-2)Man(a1-3)]Man(b1-4)GlcNAc(b1-4)[Fuc(a1-6)]GlcNAc
In short: as §1

B1: AAL (Aleuria aurantia) (protein)
chain: MPTEFLYTSKIAAISWAATGGRQQRVYFQDLNGKIREAQRGGDNPWTGGSSQNVIGEAKLFSPLAAVTWKSAQGIQIRVYCVNKDNILSEFVYDGSKWITGQLGSVGVKVGSNSKLAALQWGGSESAPPNIRVYYQKSNGSGSSIHEYVWSGKWTAGASFGSTVPGTGIGATAIGPGRLRIYYQATDNKIREHCWDSNSWYVGGFSASASAGVSIAAISWGSTPQIRVYWQKGREELYEAAYGGSWNTPGQIKDASRPTPSLPDTFIAANSSGNIDISVFFQASGVSLQQWQWISGKGWSIGAVVPTGTPAGW
[1]
  glycan array binding signal (z-score): -0.304
[2]
  glycan array binding signal (z-score): -0.316
[3]
  glycan array binding signal (z-score): -0.265
[4]
  glycan array binding signal (z-score): -0.309
[5]
  glycan array binding signal (z-score): -0.312
[6]
  glycan array binding signal (z-score): -0.316
[7]
  glycan array binding signal (z-score): -0.303
[8]
  glycan array binding signal (z-score): 1.21
[9]
  glycan array binding signal (z-score): -0.297
[10]
  glycan array binding signal (z-score): -0.304
[11]
  glycan array binding signal (z-score): -0.308
[12]
  glycan array binding signal (z-score): -0.3
[13]
  glycan array binding signal (z-score): -0.306
[14]
  glycan array binding signal (z-score): -0.319
[15]
  glycan array binding signal (z-score): -0.111
[16]
  glycan array binding signal (z-score): 1.26
[17]
  glycan array binding signal (z-score): -0.263
[18]
  glycan array binding signal (z-score): 0.135
